Measurements as given in publication PMC12820563.
Some of the results follow. The list includes weakly bound sequences.

The sequences below were run against T1, MBP-FoxP3dN (UniProt Q99JB6) (assay: PD-seq (MBP pull-down with sequencing)). Conditions: 20 mM Tris-HCl pH 7.5, 100 mM NaCl, 1.5 mM MgCl2, 0.4 uM protein, 0.1 uM dsDNA library, 30 min, room temperature, amylose pull-down; high values mean tight binding; double strand, one strand shown.
T1 sequence: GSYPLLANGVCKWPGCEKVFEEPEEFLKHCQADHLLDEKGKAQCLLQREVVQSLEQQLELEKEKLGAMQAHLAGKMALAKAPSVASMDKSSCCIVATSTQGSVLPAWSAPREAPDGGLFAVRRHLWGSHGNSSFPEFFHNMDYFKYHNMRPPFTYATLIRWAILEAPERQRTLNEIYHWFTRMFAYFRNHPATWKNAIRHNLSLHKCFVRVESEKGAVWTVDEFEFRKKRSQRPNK

| Sequence | binding signal (RPM ratio (pull-down/input)) |
| --- | --- |
| GATGATTGTTCTCCCAGCTGATGAATTTCTTCAATCGAGTAAACAAATTTTCCTAATCTTTCTGTTCAAGCGCCATCTAC | 0.217 |
| GATGATTGTTCTCCCAGCTGATGAATTACGGAGCTCGAGTAAACAAATTTTCCTAATCTTTCTGTTCAAGCGCCATCTAC | 0.247 |
| GATGATTGTTCTCCCAGCTGATGAATTGACATTATCGAGTAAACAAATTTTCCTAATCTTTCTGTTCAAGCGCCATCTAC | 0.741 |
| GATGATTGTTCTCCCAGCTGATGAATTGTCACTGTCGAGTAAACAAATTTTCCTAATCTTTCTGTTCAAGCGCCATCTAC | 0.562 |
| GATGATTGTTCTCCCAGCTGATGAATTGTCCACCTCGAGTAAACAAATTTTCCTAATCTTTCTGTTCAAGCGCCATCTAC | 0.328 |
| GATGATTGTTCTCCCAGCTGATGAATTCTGGTCCTCGAGTAAACAAATTTTCCTAATCTTTCTGTTCAAGCGCCATCTAC | 0.337 |
| GATGATTGTTCTCCCAGCTGATGAATTACACGTATCGAGTAAACAAATTTTCCTAATCTTTCTGTTCAAGCGCCATCTAC | 0.844 |
| GATGATTGTTCTCCCAGCTGATGAATTACGAGGGTCGAGTAAACAAATTTTCCTAATCTTTCTGTTCAAGCGCCATCTAC | 0.344 |
| GATGATTGTTCTCCCAGCTGATGAATTAAGAAGTTCGAGTAAACAAATTTTCCTAATCTTTCTGTTCAAGCGCCATCTAC | 0.251 |
| GATGATTGTTCTCCCAGCTGATGAATTACGTCTATCGAGTAAACAAATTTTCCTAATCTTTCTGTTCAAGCGCCATCTAC | 0.77 |
| GATGATTGTTCTCCCAGCTGATGAATTTCGACCTTCGAGTAAACAAATTTTCCTAATCTTTCTGTTCAAGCGCCATCTAC | 0.368 |
| GATGATTGTTCTCCCAGCTGATGAATTCTGCCAATCGAGTAAACAAATTTTCCTAATCTTTCTGTTCAAGCGCCATCTAC | 0.686 |
| GATGATTGTTCTCCCAGCTGATGAATTGAGTGATTCGAGTAAACAAATTTTCCTAATCTTTCTGTTCAAGCGCCATCTAC | 1.46 |
| GATGATTGTTCTCCCAGCTGATGAATTTTCAACGTCGAGTAAACAAATTTTCCTAATCTTTCTGTTCAAGCGCCATCTAC | 0.28 |
| GATGATTGTTCTCCCAGCTGATGAATTTCTTGGGTCGAGTAAACAAATTTTCCTAATCTTTCTGTTCAAGCGCCATCTAC | 0.434 |
| GATGATTGTTCTCCCAGCTGATGAATTGTTGCACTCGAGTAAACAAATTTTCCTAATCTTTCTGTTCAAGCGCCATCTAC | 3.78 |
| GATGATTGTTCTCCCAGCTGATGAATTAAGTGGCTCGAGTAAACAAATTTTCCTAATCTTTCTGTTCAAGCGCCATCTAC | 0.629 |
| GATGATTGTTCTCCCAGCTGATGAATTCCACAAGTCGAGTAAACAAATTTTCCTAATCTTTCTGTTCAAGCGCCATCTAC | 0.196 |
| GATGATTGTTCTCCCAGCTGATGAATTGAAAGGGTCGAGTAAACAAATTTTCCTAATCTTTCTGTTCAAGCGCCATCTAC | 0.2 |
| GATGATTGTTCTCCCAGCTGATGAATTGACCAGATCGAGTAAACAAATTTTCCTAATCTTTCTGTTCAAGCGCCATCTAC | 0.205 |
| GATGATTGTTCTCCCAGCTGATGAATTGATTTTATCGAGTAAACAAATTTTCCTAATCTTTCTGTTCAAGCGCCATCTAC | 0.822 |

| Sequence | binding signal (RPM ratio (pull-down/input)) |
| --- | --- |
| GATGATTGTTCTCCCAGCTGATGAATTGGGACGTTCGAGTAAACAAATTTTCCTAATCTTTCTGTTCAAGCGCCATCTAC | 0.431 |
| GATGATTGTTCTCCCAGCTGATGAATTAAAATAATCGAGTAAACAAATTTTCCTAATCTTTCTGTTCAAGCGCCATCTAC | 0.425 |
| GATGATTGTTCTCCCAGCTGATGAATTCTACGAATCGAGTAAACAAATTTTCCTAATCTTTCTGTTCAAGCGCCATCTAC | 0.206 |
| GATGATTGTTCTCCCAGCTGATGAATTCGAGACTTCGAGTAAACAAATTTTCCTAATCTTTCTGTTCAAGCGCCATCTAC | 0.453 |
| GATGATTGTTCTCCCAGCTGATGAATTTCTGCATTCGAGTAAACAAATTTTCCTAATCTTTCTGTTCAAGCGCCATCTAC | 6.35 |
| GATGATTGTTCTCCCAGCTGATGAATTAAGTCAGTCGAGTAAACAAATTTTCCTAATCTTTCTGTTCAAGCGCCATCTAC | 0.332 |
| GATGATTGTTCTCCCAGCTGATGAATTGCTGTGGTCGAGTAAACAAATTTTCCTAATCTTTCTGTTCAAGCGCCATCTAC | 0.868 |
| GATGATTGTTCTCCCAGCTGATGAATTCCCAAGATCGAGTAAACAAATTTTCCTAATCTTTCTGTTCAAGCGCCATCTAC | 0.16 |
| GATGATTGTTCTCCCAGCTGATGAATTTAAGACCTCGAGTAAACAAATTTTCCTAATCTTTCTGTTCAAGCGCCATCTAC | 0.243 |
| GATGATTGTTCTCCCAGCTGATGAATTAACCTCGTCGAGTAAACAAATTTTCCTAATCTTTCTGTTCAAGCGCCATCTAC | 0.282 |
| GATGATTGTTCTCCCAGCTGATGAATTATGCTCCTCGAGTAAACAAATTTTCCTAATCTTTCTGTTCAAGCGCCATCTAC | 1.25 |
| GATGATTGTTCTCCCAGCTGATGAATTACGTAGTTCGAGTAAACAAATTTTCCTAATCTTTCTGTTCAAGCGCCATCTAC | 0.81 |
| GATGATTGTTCTCCCAGCTGATGAATTTCCCTTATCGAGTAAACAAATTTTCCTAATCTTTCTGTTCAAGCGCCATCTAC | 0.341 |
| GATGATTGTTCTCCCAGCTGATGAATTAAACAATTCGAGTAAACAAATTTTCCTAATCTTTCTGTTCAAGCGCCATCTAC | 0.976 |
| GATGATTGTTCTCCCAGCTGATGAATTGATGTACTCGAGTAAACAAATTTTCCTAATCTTTCTGTTCAAGCGCCATCTAC | 1.82 |
| GATGATTGTTCTCCCAGCTGATGAATTTTGCGCGTCGAGTAAACAAATTTTCCTAATCTTTCTGTTCAAGCGCCATCTAC | 3.39 |
| GATGATTGTTCTCCCAGCTGATGAATTGGCGCATTCGAGTAAACAAATTTTCCTAATCTTTCTGTTCAAGCGCCATCTAC | 6.97 |
| GATGATTGTTCTCCCAGCTGATGAATTATACTACTCGAGTAAACAAATTTTCCTAATCTTTCTGTTCAAGCGCCATCTAC | 0.526 |
| GATGATTGTTCTCCCAGCTGATGAATTTTTCATCTCGAGTAAACAAATTTTCCTAATCTTTCTGTTCAAGCGCCATCTAC | 0.246 |
| GATGATTGTTCTCCCAGCTGATGAATTTGAGACATCGAGTAAACAAATTTTCCTAATCTTTCTGTTCAAGCGCCATCTAC | 0.505 |
| GATGATTGTTCTCCCAGCTGATGAATTCAGATACTCGAGTAAACAAATTTTCCTAATCTTTCTGTTCAAGCGCCATCTAC | 0.696 |

| Sequence | binding signal (RPM ratio (pull-down/input)) |
| --- | --- |
| GATGATTGTTCTCCCAGCTGATGAATTGCATGATTCGAGTAAACAAATTTTCCTAATCTTTCTGTTCAAGCGCCATCTAC | 1.35 |
| GATGATTGTTCTCCCAGCTGATGAATTCTTAGAGTCGAGTAAACAAATTTTCCTAATCTTTCTGTTCAAGCGCCATCTAC | 0.2 |
| GATGATTGTTCTCCCAGCTGATGAATTGTCGAATTCGAGTAAACAAATTTTCCTAATCTTTCTGTTCAAGCGCCATCTAC | 0.855 |
| GATGATTGTTCTCCCAGCTGATGAATTTACGGGATCGAGTAAACAAATTTTCCTAATCTTTCTGTTCAAGCGCCATCTAC | 0.363 |
| GATGATTGTTCTCCCAGCTGATGAATTCCGACTTTCGAGTAAACAAATTTTCCTAATCTTTCTGTTCAAGCGCCATCTAC | 1.41 |
| GATGATTGTTCTCCCAGCTGATGAATTTGCAGTTTCGAGTAAACAAATTTTCCTAATCTTTCTGTTCAAGCGCCATCTAC | 1.19 |
| GATGATTGTTCTCCCAGCTGATGAATTCTGCCTATCGAGTAAACAAATTTTCCTAATCTTTCTGTTCAAGCGCCATCTAC | 2.42 |
| GATGATTGTTCTCCCAGCTGATGAATTGTTAATATCGAGTAAACAAATTTTCCTAATCTTTCTGTTCAAGCGCCATCTAC | 0.901 |
| GATGATTGTTCTCCCAGCTGATGAATTCAACGGGTCGAGTAAACAAATTTTCCTAATCTTTCTGTTCAAGCGCCATCTAC | 0.24 |
| GATGATTGTTCTCCCAGCTGATGAATTCCATACATCGAGTAAACAAATTTTCCTAATCTTTCTGTTCAAGCGCCATCTAC | 0.474 |
| GATGATTGTTCTCCCAGCTGATGAATTTCGCACTTCGAGTAAACAAATTTTCCTAATCTTTCTGTTCAAGCGCCATCTAC | 1.18 |
| GATGATTGTTCTCCCAGCTGATGAATTCAGCTGTTCGAGTAAACAAATTTTCCTAATCTTTCTGTTCAAGCGCCATCTAC | 1.19 |
| GATGATTGTTCTCCCAGCTGATGAATTCTCACGTTCGAGTAAACAAATTTTCCTAATCTTTCTGTTCAAGCGCCATCTAC | 0.305 |
| GATGATTGTTCTCCCAGCTGATGAATTGCTGACATCGAGTAAACAAATTTTCCTAATCTTTCTGTTCAAGCGCCATCTAC | 1.09 |
| GATGATTGTTCTCCCAGCTGATGAATTATAGCACTCGAGTAAACAAATTTTCCTAATCTTTCTGTTCAAGCGCCATCTAC | 0.694 |
| GATGATTGTTCTCCCAGCTGATGAATTTGGTATTTCGAGTAAACAAATTTTCCTAATCTTTCTGTTCAAGCGCCATCTAC | 3.3 |
| GATGATTGTTCTCCCAGCTGATGAATTCCCCTAGTCGAGTAAACAAATTTTCCTAATCTTTCTGTTCAAGCGCCATCTAC | 0.184 |
| GATGATTGTTCTCCCAGCTGATGAATTCAACACCTCGAGTAAACAAATTTTCCTAATCTTTCTGTTCAAGCGCCATCTAC | 0.553 |
| GATGATTGTTCTCCCAGCTGATGAATTGGTTGTGTCGAGTAAACAAATTTTCCTAATCTTTCTGTTCAAGCGCCATCTAC | 5.42 |
| GATGATTGTTCTCCCAGCTGATGAATTTCGATCTTCGAGTAAACAAATTTTCCTAATCTTTCTGTTCAAGCGCCATCTAC | 0.34 |
| GATGATTGTTCTCCCAGCTGATGAATTACGCACTTCGAGTAAACAAATTTTCCTAATCTTTCTGTTCAAGCGCCATCTAC | 1.17 |
